Assay results taken from the supplement of paper PMC8728848.
The other results are listed elsewhere or left out.

How the values were obtained:
Test in all cases: glycan array binding signal (z-score within array); higher = stronger binding
Conditions in all cases: glycan notation: IUPAC condensed, linker removed
[1] = biological target: Fuc(a1-2)[GalNAc(a1-3)]Gal(b1-4)Glc
How it was run: (§1)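 Arrays were curated from the Consortium for Functional Glycomics database, 3228 in total, and kept only where the protein sequence was available. Binding is expressed as a within-array Z-score. This score was averaged across arrays of the same protein sequence at different concentrations or buffers and across linkers, and negative values can be read as non-binding.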

[2] = biological target: Fuc(a1-2)[GalNAc(a1-3)]Gal(b1-4)GlcNAc
How it was run: as §1

[3] = biological target: Fuc(a1-2)[GalNAc(a1-3)]Gal(b1-4)GlcNAc(b1-2)Man
How it was run: as §1

[4] = biological target: Fuc(a1-2)[GalNAc(a1-3)]Gal(b1-4)GlcNAc(b1-2)Man(a1-3)[Fuc(a1-2)[GalNAc(a1-3)]Gal(b1-4)GlcNAc(b1-2)Man(a1-6)]Man(b1-4)GlcNAc(b1-4)GlcNAc
How it was run: as §1

[5] = biological target: Fuc(a1-2)[GalNAc(a1-3)]Gal(b1-4)GlcNAc(b1-2)Man(a1-3)[Fuc(a1-2)[GalNAc(a1-3)]Gal(b1-4)GlcNAc(b1-2)Man(a1-6)]Man(b1-4)GlcNAc(b1-4)[Fuc(a1-6)]GlcNAc
How it was run: as §1

[6] = biological target: Fuc(a1-2)[GalNAc(a1-3)]Gal(b1-4)GlcNAc(b1-3)Gal(b1-4)GlcNAc
How it was run: as §1

[7] = biological target: Fuc(a1-2)[GalNAc(a1-3)]Gal(b1-4)GlcNAc(b1-3)Gal(b1-4)GlcNAc(b1-3)Gal(b1-4)GlcNAc
How it was run: as §1

[8] = biological target: Fuc(a1-2)[GalNAc(a1-3)]Gal(b1-4)GlcNAc(b1-3)GalNAc
How it was run: as §1

[9] = biological target: Fuc(a1-2)[GalNAc(a1-3)]Gal(b1-4)GlcNAc(b1-3)[Fuc(a1-2)[GalNAc(a1-3)]Gal(b1-4)GlcNAc(b1-6)]GalNAc
How it was run: as §1

[10] = biological target: Fuc(a1-2)[GalNAc(a1-3)]Gal(b1-4)GlcNAc(b1-6)GalNAc
How it was run: as §1

[11] = biological target: Fuc(a1-2)[GalNAc(a1-3)]Gal(b1-4)[Fuc(a1-3)]GlcNAc
How it was run: as §1

[12] = biological target: Fuc(a1-2)[GalNAc(a1-3)]Gal(b1-4)[Fuc(a1-3)]GlcNAc(b1-3)GalNAc
How it was run: as §1

[13] = biological target: Fuc(a1-2)[GalNAc(a1-4)]Gal(b1-4)GlcNAc
How it was run: as §1

[14] = biological target: Fuc(a1-2)[GalNAc(b1-3)]Gal
How it was run: as §1

Fuc(a1-3)GlcNAc = biological target: Fuc(a1-3)GlcNAc
How it was run: as §1

[15] = biological target: Fuc(a1-3)[Gal(b1-4)]Glc6S
How it was run: as §1

[16] = biological target: Fuc(a1-3)[Gal(b1-4)]GlcNAc
How it was run: as §1

[17] = biological target: Fuc(a1-3)[Gal(b1-4)]GlcNAc(b1-2)Man
How it was run: as §1

[18] = biological target: Fuc(a1-3)[Gal(b1-4)]GlcNAc(b1-2)Man(a1-3)[Fuc(a1-3)[Gal(b1-4)]GlcNAc(b1-2)Man(a1-6)]Man(b1-4)GlcNAc(b1-4)GlcNAc
How it was run: as §1

[19] = biological target: Fuc(a1-3)[Gal(b1-4)]GlcNAc(b1-2)Man(a1-3)[Fuc(a1-3)[Gal(b1-4)]GlcNAc(b1-2)Man(a1-6)]Man(b1-4)GlcNAc(b1-4)[Fuc(a1-6)]GlcNAc
How it was run: as §1

[20] = biological target: Fuc(a1-3)[Gal(b1-4)]GlcNAc(b1-3)Gal(b1-3)[Fuc(a1-4)]GlcNAc
How it was run: as §1

[21] = biological target: Fuc(a1-3)[Gal(b1-4)]GlcNAc(b1-3)Gal(b1-4)[Fuc(a1-3)]GlcNAc
How it was run: as §1

[22] = biological target: Fuc(a1-3)[Gal(b1-4)]GlcNAc(b1-3)Gal(b1-4)[Fuc(a1-3)]GlcNAc(b1-3)Gal(b1-4)[Fuc(a1-3)]GlcNAc
How it was run: as §1

[23] = biological target: Fuc(a1-3)[Gal(b1-4)]GlcNAc(b1-3)GalNAc
How it was run: as §1

[24] = biological target: Fuc(a1-3)[Gal(b1-4)]GlcNAc(b1-6)GalNAc
How it was run: as §1

[25] = biological target: Fuc(a1-3)[Gal(b1-4)]GlcNAc(b1-6)[Gal(b1-3)GlcNAc(b1-3)]Gal(b1-4)Glc
How it was run: as §1

[26] = biological target: Fuc(a1-3)[Gal(b1-4)]GlcNAc6S
How it was run: as §1

[27] = biological target: Fuc(a1-3)[Gal3S(b1-4)]Glc
How it was run: as §1

[28] = biological target: Fuc(a1-3)[Gal3S(b1-4)]GlcNAc
How it was run: as §1

[29] = biological target: Fuc(a1-3)[Gal3S(b1-4)]GlcNAc6S
How it was run: as §1

[30] = biological target: Fuc(a1-3)[GalNAc(b1-4)]GlcNAc
How it was run: as §1

[31] = biological target: Fuc(a1-3)[GalNAc(b1-4)]GlcNAc6S
How it was run: as §1

Fuc(a1-4)GlcNAc = biological target: Fuc(a1-4)GlcNAc
How it was run: as §1

Fuc(b1-3)GlcNAc = biological target: Fuc(b1-3)GlcNAc
How it was run: as §1

Gal(a1-2)Gal = biological target: Gal(a1-2)Gal
How it was run: as §1

Gal(a1-3)Gal = biological target: Gal(a1-3)Gal
How it was run: as §1

Gal(a1-3)Gal(b1-3)GlcNAc = biological target: Gal(a1-3)Gal(b1-3)GlcNAc
How it was run: as §1

B1: CaSRK1 (Capsicum annuum) (protein)
chain: MALCKIFPFAFILLSCSCYLISGQRFDYPTANLSTTWINSVSAPHSIDYTDGSRIRAILLRGTFGPRYACGFYCNGNCESYLFAIFIVQTNSASQITSPAIGFPQVVWSANRNNPVKINSTLQLTAEGDLVLRDADGTLAWSTNTAGKSVAGLSLTDEGNLALFDSKNATVWQSFDHPTDALVPGQKLVPGMKLTASVSRTNWTAGGLFALSAIDNGLVAFVESNPPQKYFEASVGGSNTSGGSNYVKYLNGSLTLFTHSADTTELILISITPASSAQYMKLESNGHLKVYEWTSRGWREVDDLLTGFRGECNYPTVCGRYGICTMGQCSCPTSSSSRTYFRPIDVRRPSLGCSEVTKLTCQNTKKHSPLEVEDVDYFAFKAGISDTDLNTCKRACLEKCSCKAAFFRSGLNSSRTRGDCYLPTEIFSIMNNEKDRTRYDSVAFIKVQV
glycan array binding signal (z-score) [1]: -0.539 | glycan array binding signal (z-score) [2]: -0.513 | glycan array binding signal (z-score) [3]: -0.384 | glycan array binding signal (z-score) [4]: -0.587 | glycan array binding signal (z-score) [5]: 0.69 | glycan array binding signal (z-score) [6]: 0.062 | glycan array binding signal (z-score) [7]: -0.06 | glycan array binding signal (z-score) [8]: -0.359 | glycan array binding signal (z-score) [9]: -0.364 | glycan array binding signal (z-score) [10]: -0.059 | glycan array binding signal (z-score) [11]: 0.434 | glycan array binding signal (z-score) [12]: -0.424 | glycan array binding signal (z-score) [13]: -0.584 | glycan array binding signal (z-score) [14]: -0.528 | glycan array binding signal (z-score) (Fuc(a1-3)GlcNAc): -0.237 | glycan array binding signal (z-score) [15]: -0.056 | glycan array binding signal (z-score) [16]: -0.091 | glycan array binding signal (z-score) [17]: 0.514 | glycan array binding signal (z-score) [18]: 0.203 | glycan array binding signal (z-score) [19]: -0.545 | glycan array binding signal (z-score) [20]: -0.428 | glycan array binding signal (z-score) [21]: 0.387 | glycan array binding signal (z-score) [22]: -0.551 | glycan array binding signal (z-score) [23]: 0.176 | glycan array binding signal (z-score) [24]: -0.001 | glycan array binding signal (z-score) [25]: -0.316 | glycan array binding signal (z-score) [26]: 0.606 | glycan array binding signal (z-score) [27]: -0.14 | glycan array binding signal (z-score) [28]: 0.022 | glycan array binding signal (z-score) [29]: -0.253 | glycan array binding signal (z-score) [30]: -0.195 | glycan array binding signal (z-score) [31]: -0.452 | glycan array binding signal (z-score) (Fuc(a1-4)GlcNAc): -0.037 | glycan array binding signal (z-score) (Fuc(b1-3)GlcNAc): -0.15 | glycan array binding signal (z-score) (Gal(a1-2)Gal): -0.295 | glycan array binding signal (z-score) (Gal(a1-3)Gal): -0.473 | glycan array binding signal (z-score) (Gal(a1-3)Gal(b1-3)GlcNAc): 3.11
